{
  "source": "PubChem BioAssay AID504832",
  "about": "(National Center for Advancing Translational Sciences (NCATS), 2011)",
  "note": "About 18,000 (5.8%) of roughly 310,000 compounds were called active. The shares of active, inactive and inconclusive entries below differ from those in the screen. The call rests on the fitted dose curve; in most records, active means well fitted inhibition curve with a large enough effect; inconclusive means small, poorly fitted or top-dose-only effect, or another doubt; inactive means no such curve, though single readings can be large or run the other way. No potency is given beside an inconclusive call; the fits are too rough. On the % scale 0 is the no-effect control and ±100 the full control effect; potency means the concentration at half of the fitted maximal effect; tags describe the fitted curve by direction and shape.",
  "data": [
    {"test": "Primary qHTS for delayed death inhibitors of the malarial parasite plastid, 48 hour incubation", "conditions": "P. falciparum luciferase growth in erythrocytes; series mostly up to 28.7 µM; activity change, negative = inhibition: at the top concentration", "procedure,_shortened": "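Compounds are pin-transferred into medium, infected erythrocytes (2% hematocrit, 0.1% parasitemia final) are added, and plates sit one parasite generation at 37 C in 5% CO2. Detection reagent is then added and luminescence measured.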", "values": [
      {"smiles": "Cc1ccc(Nc2nc3nonc3[nH]c2=O)cc1C", "activity change, negative = inhibition": "inactive: 45.5%"},
      {"smiles": "COc1ccc(S(=O)(=O)Nc2cccc(S(=O)(=O)N3CCCC3)c2)cc1OC", "activity change, negative = inhibition": "inactive: -10.2%"},
      {"smiles": "Cc1ccccc1Nc1nnc(SCC(=O)NCc2cccs2)s1", "Potency": "inconclusive [inhibitor, partial curve]"},
      {"smiles": "COC(=O)C(NC(=O)c1ccccc1)=C(C)C", "activity change, negative = inhibition": "inactive: 7.82%"},
      {"smiles": "O=C(NCCNC1CCC(c2ccccc2)CC1)c1cccs1", "note": "(centres undefined)", "activity change, negative = inhibition": "inactive: -8.11%"},
      {"smiles": "Cc1ccc(C2(c3noc(CN4C[C@@H](C)O[C@@H](C)C4)n3)CCCC2)cc1", "Potency": "active: 11.7 µM"},
      {"smiles": "O=C(CNc1ccccc1Cl)c1ccc(Br)cc1", "Potency": "inconclusive [inhibitor, single point]"},
      {"smiles": "COC(=O)C1=C(C)N(Cc2ccc(C)cc2)C(=O)/C1=C\\c1cc(OC)c(OC)c(OC)c1", "Potency": "active: 10.4 µM"},
      {"smiles": "COC(=O)c1c(NC(=O)c2c(OC)cccc2OC)sc2c1C(C(=O)OC)CC2", "note": "(centres undefined)", "Potency": "inconclusive [inhibitor, single point]"},
      {"smiles": "C=CCSc1nc(C)c(CCCC)c(=O)[nH]1", "activity change, negative = inhibition": "inactive: -3.63%"},
      {"smiles": "NC(N)=N/N=C/c1ccc(OCc2ccccc2)cc1", "Potency": "active: 1.47 µM"},
      {"smiles": "COc1ccc(-c2ccc(SCc3cccnc3)nn2)cc1OC", "activity change, negative = inhibition": "inactive: 2.22%"},
      {"smiles": "COc1ccc(C(NC(=O)CN2CCCCCC2)c2ccc(OC)cc2)cc1", "Potency": "inconclusive [inhibitor, single point]"},
      {"smiles": "Cc1cc(C)c(C(=O)N2CCC(N3CCC(C(=O)NC(C)C)CC3)CC2)o1", "Potency": "inconclusive [inhibitor, single point]"},
      {"smiles": "COCCn1c(C)cc(C(=O)COc2ccc(N(C)S(=O)(=O)c3ccc(C)cc3)cc2)c1C", "Potency": "active: 9.28 µM"},
      {"smiles": "CCc1ccc2c(c1)C(c1cccs1)=NNC(c1cccnc1)=N2", "Potency": "inconclusive [inhibitor, single point]"},
      {"smiles": "CC1CCN(c2ccc(C(=O)NCc3ccco3)cc2[N+](=O)[O-])CC1", "Potency": "active: 0.828 µM"},
      {"smiles": "C=CCn1c(SCC(C)=O)nnc1-c1cc(-c2ccccc2)sc1N", "Potency": "inconclusive [inhibitor, single point]"},
      {"smiles": "CCc1cc(C(=O)N(CCCOC)c2c(N)n(Cc3ccccc3)c(=O)[nH]c2=O)sc1C", "Potency": "inconclusive [inhibitor, single point]"},
      {"smiles": "CCSc1nc2sc3c(c2c(=O)n1-c1ccc(C)cc1)CCN(C)C3", "Potency": "active: 2.62 µM"},
      {"smiles": "O=C(NCC(=O)N(c1cccc(F)c1)C(C(=O)NC1CCCC1)c1ccncc1)c1cccs1", "note": "(centres undefined)", "activity change, negative = inhibition": "inactive: 0.506%"},
      {"smiles": "CCc1ccc(NC(=O)NCCCN2CCCC2=O)cc1", "activity change, negative = inhibition": "inactive: 38.4%"},
      {"smiles": "CCOC(=O)N1CCC(NC(=S)Nc2ccc3nc(N4CCN(CC)CC4)cc(C)c3c2)CC1", "Potency": "inconclusive [inhibitor, single point]"},
      {"smiles": "COc1ccccc1C(=O)NCCC(=O)NCC1COc2ccccc2O1", "note": "(centres undefined)", "activity change, negative = inhibition": "inactive: -13.2%"},
      {"smiles": "CC1=C([N+](=O)[O-])C(c2cccc(Br)c2)C2=C(N1)c1ccccc1C2=O", "note": "(centres undefined)", "Potency": "active: 4.65 µM"},
      {"smiles": "CN(CC1CCCO1)S(=O)(=O)c1ccc(C(=O)Nc2ccc(F)cc2)cc1", "note": "(centres undefined)", "Potency": "inconclusive [inhibitor, partial curve, poor fit]"},
      {"smiles": "CC(C)(C)C1CCc2c(C(=O)N/N=C/c3cccs3)csc2C1", "note": "(centres undefined)", "Potency": "inconclusive [inhibitor, partial curve, poor fit]"},
      {"smiles": "Cc1ccc(-c2cc(C(=O)Nc3ccc(S(=O)(=O)Nc4nccs4)cc3)c3ccccc3n2)c(C)c1", "Potency": "inconclusive [inhibitor, single point]"},
      {"smiles": "CN(C)C(CNC(=O)CCc1nc2sc3c(c2c(=O)[nH]1)CCCC3)c1ccccc1", "note": "(centres undefined)", "Potency": "inconclusive [inhibitor, single point]"},
      {"smiles": "CCN(CC)S(=O)(=O)c1ccc2c(c1)N(CC(=O)N1CCC(C(N)=O)CC1)C(=O)CO2", "activity change, negative = inhibition": "inactive: -14.7%"},
      {"smiles": "CCn1c(C)cc(/C=C2\\C(=O)NC(=O)N(c3ccccc3C)C2=O)c1C", "activity change, negative = inhibition": "inactive: -0.649%"},
      {"smiles": "CCOP(=O)(OCC)C(Nc1cccc(C(F)(F)F)c1)c1ccc(Br)cc1", "note": "(centres undefined)", "Potency": "inconclusive [inhibitor, full curve, poor fit]"},
      {"smiles": "CCN(CC)c1ccc(CN(C(=O)c2cccs2)C2CCS(=O)(=O)C2)cc1", "note": "(centres undefined)", "Potency": "inconclusive [inhibitor, single point]"},
      {"smiles": "COc1cccc(OC)c1OCCCc1c(C)n[nH]c1C", "Potency": "inconclusive [inhibitor, full curve, poor fit]"},
      {"smiles": "CCNc1nc(NC(C)C)nc(N(C#N)Cc2ccccc2)n1", "Potency": "inconclusive [inhibitor, partial curve, poor fit]"},
      {"smiles": "COc1cccc(CN2CCc3ccc(NC(=O)CCc4ccc(C)cc4)cc3C2)c1O", "Potency": "inconclusive [inhibitor, single point]"},
      {"smiles": "CCOc1ccccc1NC(=O)CSc1n[nH]c(N)n1", "activity change, negative = inhibition": "inactive: 6.81%"},
      {"smiles": "O=C(/C=C/c1ccc([N+](=O)[O-])s1)N1CCN(c2ccccc2)CC1", "Potency": "inconclusive [inhibitor, single point]"},
      {"smiles": "COc1ccc(S(=O)(=O)N2CCOC2CNC(=O)C(=O)NCc2ccc(F)cc2)cc1", "note": "(centres undefined)", "Potency": "inconclusive [inhibitor, full curve, poor fit]"},
      {"smiles": "Cc1ccc2c(NC(=S)NC(=O)c3ccccc3)cccc2n1", "activity change, negative = inhibition": "inactive: 14.1%"},
      {"smiles": "Cn1cccc1Cc1nnc(SCC(=O)Nc2ccc(F)cc2)n1-c1ccc(F)cc1", "Potency": "inconclusive [inhibitor, full curve, poor fit]"},
      {"smiles": "Oc1ccc(CN2CCN(c3ccccc3)CC2)c2cccnc12", "Potency": "active: 7.38 µM"},
      {"smiles": "COc1ccccc1NC(=S)N1CCC(C(=O)c2ccc(F)cc2)CC1", "activity change, negative = inhibition": "inactive: -19.3%"},
      {"smiles": "COc1ccc(-c2nc(CS(=O)CC(=O)NCCCN3CCOCC3)c(C)o2)cc1OC", "note": "(centres undefined)", "activity change, negative = inhibition": "inactive: 11.5%"},
      {"smiles": "Cc1c(NC(=S)NCc2ccc(F)cc2)cccc1[N+](=O)[O-]", "Potency": "inconclusive [inhibitor, single point]"},
      {"smiles": "NC(=O)c1ccc(Cn2c(C(=O)c3ccc(Cl)cc3)c3ccccc3[n+]2[O-])cc1", "Potency": "inconclusive [inhibitor, partial curve, poor fit]"},
      {"smiles": "COc1ccc(C(=O)N2CCc3cc(OC)c(OC)cc3C2c2cccc([N+](=O)[O-])c2)cc1", "note": "(centres undefined)", "Potency": "active: 6.57 µM"},
      {"smiles": "CCCCCCC(=O)Cc1cc(OC)c(OC)cc1C=C(C(=O)OCC)C(=O)OCC", "Potency": "inconclusive [inhibitor, single point]"},
      {"smiles": "O=C(CSc1nnc(-c2ccco2)n1Cc1ccccc1)NC(=O)NCc1ccco1", "Potency": "active: 10.4 µM"},
      {"smiles": "CC(C)(C)C(C(Oc1ccc(Cl)cc1)n1cncn1)n1nnnc1C(c1cccc(Cl)c1)N1CCCCC1", "note": "(centres undefined)", "Potency": "active: 1.85 µM"},
      {"smiles": "Cc1cccc(N2CCN(C(=O)/C=C/c3cccs3)CC2C)c1", "note": "(centres undefined)", "Potency": "inconclusive [inhibitor, partial curve]"},
      {"smiles": "CCOC(=O)N1CCc2c(sc(NC(=O)c3ccc(Cl)s3)c2C(N)=O)C1", "Potency": "inconclusive [inhibitor, single point]"},
      {"smiles": "CC(=O)Nc1ccc(NCN2C(=O)[C@@H]3[C@H]4CC[C@H](C4)[C@@H]3C2=O)cc1", "activity change, negative = inhibition": "inactive: 18.8%"},
      {"smiles": "Cc1ccc2c(c1)C(=O)CC(c1ccc3c(c1)OCCO3)O2", "note": "(centres undefined)", "activity change, negative = inhibition": "inactive: -4.81%"},
      {"smiles": "COc1cccc(N(C(=O)Cc2cccs2)C(C(=O)NC2CCCC2)c2ccncc2)c1", "note": "(centres undefined)", "Potency": "inconclusive [inhibitor, single point]"},
      {"smiles": "Cc1ccc(CNC(=O)C2CCC(=O)N(CC3CCCCC3)C2)o1", "note": "(centres undefined)", "activity change, negative = inhibition": "inactive: 10.4%"},
      {"smiles": "Cn1c(=O)c(C(=O)CN2CCc3ccccc32)c(N)n(Cc2ccccc2)c1=O", "Potency": "active: 11.7 µM"},
      {"smiles": "Cc1onc(-c2c(F)cccc2Cl)c1C(=O)NC(=S)NCc1cccnc1", "activity change, negative = inhibition": "inactive: -21.1%"},
      {"smiles": "COc1ccc(C2CC(=O)Oc3c(C(CCN4CCCCC4)c4ccc(N(C)C)cc4)c(OC)cc(OC)c32)cc1", "note": "(centres undefined)", "Potency": "inconclusive [inhibitor, partial curve]"},
      {"smiles": "COc1ccc(NC(=O)CCCn2c(=O)c3sccc3n(Cc3ccc(C)cc3)c2=O)cc1", "activity change, negative = inhibition": "inactive: -11%"},
      {"smiles": "O=C(NCc1ccccc1)C1=C[C@H](C2CC2)C[C@H](OCCCCO)O1", "activity change, negative = inhibition": "inactive: 15.9%"},
      {"smiles": "CCC1(CC)Nc2ccccc2C(=O)N1c1ccc(OC)cc1", "activity change, negative = inhibition": "inactive: 112%"},
      {"smiles": "CC(=O)c1c(C)cc(C)c(CSc2nnc(-c3ccco3)o2)c1C", "Potency": "inconclusive [inhibitor, single point]"},
      {"smiles": "Cc1ccc(CNC(=O)CCSCc2ccccc2C)cc1", "Potency": "inconclusive [inhibitor, partial curve, poor fit]"},
      {"smiles": "CCOC(=O)c1ccc(N(C(=O)c2cnccn2)C(C(=O)NC2CCCCC2)c2cn(C)nc2C)cc1", "note": "(centres undefined)", "Potency": "inconclusive [inhibitor, full curve, poor fit]"},
      {"smiles": "CCn1nnc(NC(=O)c2cccnc2)n1", "activity change, negative = inhibition": "inactive: 21.4%"},
      {"smiles": "CCOC(=O)c1c[nH][nH]c1=O", "activity change, negative = inhibition": "inactive: -8.48%"},
      {"smiles": "CCOC(=O)CN(C(=O)COc1nc(C)cc(C)c1C#N)c1cccc(Cl)c1", "Potency": "inconclusive [inhibitor, partial curve, poor fit]"},
      {"smiles": "COc1cc(C2Nc3ccc4ccccc4c3C3=C2C(=O)CC(C)(C)C3)ccc1OC(C)C(=O)O", "note": "(centres undefined)", "Potency": "active: 1.65 µM"},
      {"smiles": "Cc1nn2c(N3CCOCC3)cc(C(C)C)nc2c1-c1ccccc1", "activity change, negative = inhibition": "inactive: -9.68%"},
      {"smiles": "Oc1ccc(C23CCCC2C2(CCCC2)c2ccc(O)cc2O3)c(O)c1", "note": "(centres undefined)", "Potency": "inconclusive [inhibitor, single point]"},
      {"smiles": "COc1ccc(NC(=O)CN(C)C(=O)Cc2c(C)nc3ccccc3c2C)cc1", "Potency": "inconclusive [inhibitor, single point]"},
      {"smiles": "CCOc1ccc(-c2[nH]ncc2Oc2ccccc2OC)c(O)c1", "Potency": "active: 8.28 µM"},
      {"smiles": "CC(Oc1ccc(-c2ccccc2)c(F)c1)c1ccn(S(=O)(=O)c2cccc3ccccc23)n1", "note": "(centres undefined)", "Potency": "inconclusive [inhibitor, single point]"}
    ]}
  ]
}
